Laboratory results reported in PubChem BioAssay AID686979 (National Center for Advancing Translational Sciences (NCATS), 2013).
The campaign covered roughly 420,000 compounds. About 50,000 (12%) were called active. Inconclusive results, whose numbers are uncertain, are shown with a selection of clear calls. Calls come from the whole dose curve; as a rule, active = well fitted inhibition curve with a large enough effect; inconclusive = small, poorly fitted or top-dose-only effect; inactive = flat fitted curve, though single readings scatter. Potencies of inconclusive entries are left out as doubtful fits.

Assay: qHTS for Inhibitors of human tyrosyl-DNA phosphodiesterase 1 (TDP1): qHTS in cells in presence of CPT; note: nearly all actives have a fitted effect of over 55% in size
Conditions: chicken DT40 Tdp1-/-;hTDP1 cells + 20 nM CPT, ATP luminescence, 48 h; series mostly up to 46.2 µM
How it was run: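 Chicken DT40 Tdp1-/- cells complemented with human TDP1, 400 cells/well, exposed to compounds plus 20 nM camptothecin for at least 48 h at 37 C; viability read as ATP content by CellTiter-Glo luminescence.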
Potency is the fitted concentration of half-maximal effect; tags give direction and shape of the fitted curve.

Structure (SMILES) | Potency
Cc1ccccc1NC(=O)CN1CCN(C(=O)c2ccco2)CC1 | inactive
CCOC(=O)C1CCCN(S(=O)(=O)c2cc(C(=O)OC)n(C)c2)C1 (stereo not given) | active: 16.4 µM
CCCc1noc(-c2ccc(NCc3ccccc3OC)c([N+](=O)[O-])c2)n1 | active: 10.3 µM
CC(C)(C)OC(=O)N1CCC(c2c(C(=O)NCc3ccccn3)cnn2-c2ccccc2Cl)CC1 | inconclusive [inhibitor, single point]
O=C(CSc1ccc(S(=O)(=O)N2CCOCC2)cn1)Nc1ccc(F)c(F)c1 | active: 16.4 µM
Cn1c(=O)nc2n(-c3ccc(Br)cc3)c3cccc(Cl)c3cc-2c1=O | inactive
Cc1ccc(NC(=O)CSc2nc(=O)n(CCN3CCOCC3)c3c2CCC3)cc1Cl | inconclusive [inhibitor, single point]
CCC(=O)N1c2ccccc2CC1C(=O)NCCN1CCN(c2ccccc2F)CC1 (stereo not given) | inconclusive [inhibitor, single point]
CN(C)c1ccc(NC(=O)c2ccc(N3CCOCC3)nc2)cc1 | inconclusive [inhibitor, single point]
CC(=O)N1N=C(c2cccs2)CC1c1ccco1 (stereo not given) | inconclusive [inhibitor, partial curve, poor fit]
COc1ccc(NS(=O)(=O)c2cc(NC(=O)c3ccccc3F)ccc2N2CCCC2)cc1 | inconclusive [inhibitor, single point]
COC(C/C=C/[C@H](O)[C@H](C)OCc1ccccc1)OC | inactive
Cc1ccc(Nc2c(-c3cccc(Cl)c3)nc3cccc(C)n23)cc1 | inconclusive [inhibitor, single point]
O=C(N/N=C/c1c(F)cccc1Cl)c1cc(C2CC2)[nH]n1 | inactive
O=C(CSc1nnc(-c2ccco2)o1)c1ccccc1 | inconclusive [inhibitor, single point]
Cc1cc(-c2ccc(C)c(S(=O)(=O)NCCc3ccccc3)c2)on1 | inconclusive [inhibitor, partial curve]
Cc1ccc(NC(=O)C(C)c2ccc(-c3ccccc3)c(F)c2)cc1 (stereo not given) | inconclusive [inhibitor, single point]
CCOC(=O)CNc1c(-c2ccc(O)cc2)nc2ccccn12 | inactive
Cc1cc(C)c(NC(=O)CNC(=O)CN(C)Cc2ccc(Br)s2)c(C)c1 | inconclusive [inhibitor, single point]
Cc1ccc(-c2nc3ccccc3s2)cc1S(=O)(=O)N1CCOCC1 | inconclusive [inhibitor, partial curve, poor fit]
CCOc1ccccc1NC(=O)CSc1nc(-c2cccs2)cc(C(F)(F)F)n1 | inactive
COc1ccc(Cl)cc1NC(=O)c1c(NCc2cccs2)sc2c1CCC(C)C2 (stereo not given) | inconclusive [inhibitor, single point]
Cc1[nH]c2ccccc2c1SCCNC(=O)c1ccc(F)cc1 | inconclusive [inhibitor, single point]

Structure (SMILES) | Potency
O=C(c1cccc(S(=O)(=O)N2CCOCC2)c1)N1CCC(Cc2ccccc2)CC1 | inconclusive [inhibitor, partial curve]
CC(C)c1ccc(NC(=O)CSC2=Nc3ccccc3C3=NC(CC(=O)NCCc4ccccc4)C(=O)N23)cc1 (stereo not given) | inconclusive [inhibitor, single point]
CCCCNC(=O)C(C)N(CCN(C)C)C(=O)CCCCCN1C(=O)NC(c2ccc(Cl)cc2)C(C(=O)OCc2ccccc2)=C1C (stereo not given) | active: 7.31 µM
Cc1nc2ccc(NC(=O)c3ccc(Cl)c(S(=O)(=O)N(C)c4ccccc4)c3)cc2s1 | active: 13 µM
Cn1cc(-c2cc3n(n2)CCC(=O)N3CC(=O)NCc2ccccc2)c2ccccc21 | inconclusive [inhibitor, single point]
CN(Cc1ccco1)c1ccnc(-c2cccc(C#N)c2)n1 | inconclusive [inhibitor, single point]
NC(=O)NCC(c1ccccc1)C1CCCCC1 (stereo not given) | inconclusive [inhibitor, single point]
O=C1OC(N2C(=O)CC[C@H]2C(=O)Nc2ccc(Br)cc2F)c2ccccc21 (stereo not given in full) | inactive
CCc1cc(-c2nnc(SCC(=O)NC3CC3)n2C)cs1 | inactive
FC(F)(F)c1cc(-c2ccco2)nc(NCc2ccccc2)n1 | inconclusive [inhibitor, single point]
O=C(O)c1cc2c(cc1NC(=O)c1c(F)cccc1Cl)OCCCO2 | inactive
O=C(Cc1ccc(S(=O)(=O)N2CCOCC2)s1)N1CCN(c2ccc(C(F)(F)F)cc2[N+](=O)[O-])CC1 | active: 14.6 µM
O=c1[nH]cnc2c1sc(=S)n2-c1ccccc1 | inconclusive [inhibitor, single point]
COc1ccc(/C=N\NC(=O)COc2ccc(C(C)(C)C)cc2)cc1Cn1nc(C)cc1C | inconclusive [inhibitor, partial curve]
CC(c1ccccc1)N(NC(=O)C(O)(c1ccccc1)c1ccccc1)C(=O)c1ccccc1 (stereo not given) | inconclusive [inhibitor, single point]
Nn1c(C2CCC2)nc2ccccc2c1=O | inactive
CCOc1ccccc1NC(=O)N1CCCN(c2ncccc2C#N)CC1 | inconclusive [inhibitor, single point]
CC(=O)n1c2ccccc2c2ccccc21 | inactive
Cc1ccccc1CN1CCN(C(=O)[C@H]2O[C@@H](n3cnc4c(N)ncnc43)[C@H](O)[C@@H]2O)CC1 | inconclusive [inhibitor, single point]
O=C(Oc1ccccc1)N1CCC2(CCCN(c3ccccc3)C2)CC1 | inactive
Cc1cccc(Cn2c(SCc3ccc(C(=O)NCc4cccs4)cc3)nc3ccncc32)c1 | inconclusive [inhibitor, single point]
O=C(Cc1cccc2ccccc12)N/N=C/c1ccc2cccc(O)c2n1 | inconclusive [inhibitor, single point]
